Values marked as one replicate rest on one cluster of the flow cell; about a third of the high ones do not repeat.
What follows are sequences tested on ATP (assay: switch fluorescence ratio, 500 uM ATP over buffer (Cy3 cluster intensity, sum of 5 cycles each) (fold (ratio)); higher = stronger signal-on switching upon ATP binding; sequences stand for … in TCGTCGGCAGCGTCAGATGTGTATAAGAGACAGTTTTTTTTTTTTTTTTTTTTTTTTT…TC). Conditions: aptamer strand: ATP DNA aptamer (quencher-CACCTGGGGGAGTATTGCGGAGGAAGG + anchor), 100 nM annealed; ATP concentration: 500 uM; one replicate.
In short: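 Clusters with intensities outside 100-1000 RFU were excluded. The remaining Cy3-labelled switching-strand clusters on a modified Illumina MiSeq flow-cell had been annealed to 100 nM quencher-labelled ATP aptamer and imaged in selection buffer, then after 15 min with 500 uM ATP at 22 °C, for five cycles separated by NaOH stripping and re-annealing. The fluorescence ratio, averaged per switch-domain sequence, is each cluster's summed target-cycle Cy3 intensity over its summed buffer-cycle Cy3 intensity.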
For TCGATGCTAT, the switch fluorescence ratio was 1.58.
TCGATTGAAG showed a switch fluorescence ratio of 0.982.
Work on TCGATTTCTG yielded a switch fluorescence ratio of 0.99.
For TCGCAACGGG, the switch fluorescence ratio was 1.16.
In the case of TCGCAAGGGG, the switch fluorescence ratio is reported as 1.09.
In the case of TCGCACGAAC, the switch fluorescence ratio is reported as 1.59.
Work on TCGCATCCTA yielded a switch fluorescence ratio of 1.17.
With TCGCATGAAA the switch fluorescence ratio was 0.996.
TCGCCAAGTT gave a switch fluorescence ratio of 1.02.
With TCGCCCGGGT the switch fluorescence ratio was 1.11.
Sequence TCGCCGATCC has a switch fluorescence ratio of 1.01.
Sequence TCGCGAAACG has a switch fluorescence ratio of 1.03.
Sequence TCGCGCTAGT has a switch fluorescence ratio of 0.994.
Work on TCGCGGAGTA yielded a switch fluorescence ratio of 0.971.
In the case of TCGCGGAGTC, the switch fluorescence ratio is reported as 1.03.
Sequence TCGCGGGGCC has a switch fluorescence ratio of 1.
TCGCGGTGTA showed a switch fluorescence ratio of 0.992.
In the case of TCGCGTACAC, the switch fluorescence ratio is reported as 1.92.
TCGCGTGAGA showed a switch fluorescence ratio of 1.06.
TCGCGTGCAG gave a switch fluorescence ratio of 0.977.
In the case of TCGCGTTTGA, the switch fluorescence ratio is reported as 1.03.
TCGCTAACCC showed a switch fluorescence ratio of 1.3.
With TCGCTATCCA the switch fluorescence ratio was 1.1.
TCGCTCCCGA showed a switch fluorescence ratio of 1.12.
TCGCTCTTTT showed a switch fluorescence ratio of 1.03.
TCGCTTGAAT gave a switch fluorescence ratio of 0.985.
Work on TCGGAACTCA yielded a switch fluorescence ratio of 1.03.
TCGGACGAGA was tested, and the switch fluorescence ratio was 0.995.
Sequence TCGGAGAATT has a switch fluorescence ratio of 0.984.
For TCGGAGGGGT, the switch fluorescence ratio was 1.05.
With TCGGAGTCAG the switch fluorescence ratio was 1.15.
Work on TCGGAGTCCC yielded a switch fluorescence ratio of 1.1.
TCGGATATAC gave a switch fluorescence ratio of 4.53.
TCGGCCAGAA gave a switch fluorescence ratio of 0.979.
In the case of TCGGCCGATG, the switch fluorescence ratio is reported as 1.02.
Work on TCGGCGCCCA yielded a switch fluorescence ratio of 0.991.
In the case of TCGGCTACGT, the switch fluorescence ratio is reported as 0.937.
In the case of TCGGGACGTG, the switch fluorescence ratio is reported as 0.932.
For TCGGGAGGTA, the switch fluorescence ratio was 0.983.
TCGGGATATT gave a switch fluorescence ratio of 1.06.
In the case of TCGGGGTTCC, the switch fluorescence ratio is reported as 0.982.
For TCGGGTACCC, the switch fluorescence ratio was 1.02.
In the case of TCGGGTATAG, the switch fluorescence ratio is reported as 1.01.
TCGGGTATTG was tested, and the switch fluorescence ratio was 1.11.
In the case of TCGGGTGCCT, the switch fluorescence ratio is reported as 1.01.
TCGGGTTAAC gave a switch fluorescence ratio of 1.02.
TCGGGTTTTG showed a switch fluorescence ratio of 0.994.
For TCGGTAAGCA, the switch fluorescence ratio was 0.971.
TCGGTACATT showed a switch fluorescence ratio of 1.04.
TCGGTAGGTT showed a switch fluorescence ratio of 1.01.
TCGGTATCGT was tested, and the switch fluorescence ratio was 0.943.
With TCGGTGCTAG the switch fluorescence ratio was 0.999.
For TCGGTGGAAT, the switch fluorescence ratio was 0.998.
TCGGTGTGAC gave a switch fluorescence ratio of 1.01.
Sequence TCGGTGTGTT has a switch fluorescence ratio of 0.974.
Sequence TCGGTGTTCT has a switch fluorescence ratio of 0.982.
TCGGTTCAAT gave a switch fluorescence ratio of 0.986.
For TCGGTTGCAA, the switch fluorescence ratio was 1.45.
TCGGTTGTAG was tested, and the switch fluorescence ratio was 0.99.
In the case of TCGTAAACAG, the switch fluorescence ratio is reported as 0.989.
Work on TCGTAAGGGG yielded a switch fluorescence ratio of 1.01.
Sequence TCGTAATGAA has a switch fluorescence ratio of 1.04.
For TCGTAATTTG, the switch fluorescence ratio was 0.997.
Work on TCGTAGCCCA yielded a switch fluorescence ratio of 1.08.
TCGTCAAAT showed a switch fluorescence ratio of 0.996.
TCGTCAAGA gave a switch fluorescence ratio of 1.03.
TCGTCACGA showed a switch fluorescence ratio of 0.997.
For TCGTCAGTCG, the switch fluorescence ratio was 0.888.
TCGTCCACTT showed a switch fluorescence ratio of 1.03.
TCGTCCGGCC gave a switch fluorescence ratio of 1.27.
For TCGTGAAAAG, the switch fluorescence ratio was 1.
For TCGTGAAGTG, the switch fluorescence ratio was 0.976.
TCGTGACTCT was tested, and the switch fluorescence ratio was 0.958.
Work on TCGTGCCCAT yielded a switch fluorescence ratio of 1.02.
TCGTGGGCGG showed a switch fluorescence ratio of 0.985.
Sequence TCGTGGGGCT has a switch fluorescence ratio of 0.966.
With TCGTGTAAGT the switch fluorescence ratio was 0.983.
TCGTGTGAGG gave a switch fluorescence ratio of 0.974.
In the case of TCGTTACTAG, the switch fluorescence ratio is reported as 1.01.
TCGTTATCTA showed a switch fluorescence ratio of 0.995.
TCGTTATTG was tested, and the switch fluorescence ratio was 0.975.
With TCGTTCACGT the switch fluorescence ratio was 1.04.
TCGTTCCCTC showed a switch fluorescence ratio of 1.05.
In the case of TCGTTCGGGT, the switch fluorescence ratio is reported as 1.04.
TCGTTCTTGA showed a switch fluorescence ratio of 1.03.

From the supplement of paper PMC10126150
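Further: ATP exposure 15 min at 22 °C before imaging.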
